Measured values taken from PubChem BioAssay AID588855 (National Center for Advancing Translational Sciences (NCATS), 2011).
The campaign covered roughly 410,000 compounds. About 5,000 (1.2%) were called active. Inconclusive means that the source gave no clear call. Such entries were picked first, then a sample of the others. The call rests on the fitted dose curve; in most records, active means well fitted inhibition curve with a large enough effect; inconclusive means small, poorly fitted or top-dose-only effect; inactive means no such curve, though single readings can be large or run the other way. A potency beside an inconclusive call is a rough fit, not a confirmed value.
On the % scale 0 is the no-effect control and ±100 the full control effect; potency means the concentration at half of the fitted maximal effect; tags describe the fitted curve by direction and shape.

Test: qHTS for Inhibitors of TGF-b; further: nearly all actives have a fitted effect of over 65% in size
Details: HepG2 CAGA-GFP TGF-b/SMAD3 reporter, GFP fluorescence, 18 h, TGF-beta stimulated, 500 pg/mL final; series mostly up to 46.1 µM; activity, negative = inhibition: at the top concentration
Summary of the method: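 Inhibition of TGF-beta-driven CAGA-GFP reporter expression in HEPG2 cells is measured by cellular GFP fluorescence after 18 h stimulation with 500 pg/mL recombinant TGF-beta in 1% FBS medium at 37 degrees C.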
In the case of `CCOC(=O)NN1C(=O)c2ccccc2NC1c1ccccc1` (stereo unspecified), the Potency is reported as inconclusive: 35.5 µM [inhibitor, single point]. In the case of `Cc1ccccc1C(=O)Nc1ccc2c(c1)C(=O)NC2=O`, the Potency is reported as inconclusive: 0.112 µM [inhibitor, full curve, poor fit]. For `COc1ccc(-c2noc(CC(=O)Nc3ccc(Br)cc3C)n2)cc1`, the Potency was inconclusive: 0.112 µM [inhibitor, full curve, poor fit]. In the case of `CCCc1nn(-c2ccccc2)c2c1C(c1cccs1)C(C#N)=C(N)O2` (stereo unspecified), the Potency is reported as inconclusive: 35.5 µM [inhibitor, single point]. For `O=C(Nc1ccccc1F)C1CCCN1S(=O)(=O)c1cccc2nsnc12` (stereo unspecified), the “activity, negative = inhibition” value was inactive: -12.8%. For `CCC(C)(C)NC(=O)C1CCN(S(=O)(=O)c2c(C)noc2/C=C/c2ccc(C)cc2)CC1`, the “activity, negative = inhibition” value was inactive: -7.86%. For `COc1ccccc1OCCOCCN1CCCC1`, the “activity, negative = inhibition” value was inactive: -20.3%. With `CC[N+]1(C)CCC(O)(c2ccc(OC)cc2)C(C(=O)c2ccc(OC)cc2)C1` (stereo unspecified) the Potency was inconclusive: 4.47 µM [inhibitor, full curve, poor fit]. In the case of `Cn1c(O)c(/C=C2\C=NN=C2c2ccccc2)sc1=S`, the Potency is reported as inconclusive: 35.5 µM [inhibitor, single point]. For `Fc1ccc(-n2cc(-c3ccccc3)c3c(NCCc4ccccc4)ncnc32)cc1`, the “activity, negative = inhibition” value was inactive: -24.6%. For `CCc1nc2c(OCc3cc(Cl)cc(Cl)c3)cccn2c1N(C=O)Cc1ccccc1`, the Potency was inconclusive: 35.5 µM [inhibitor, single point]. In the case of `COc1cccc(N2CCN(C(=O)CN(c3cc(C)cc(C)c3)S(=O)(=O)c3c(C)noc3C)CC2)c1`, the Potency is reported as inconclusive: 35.5 µM [inhibitor, single point]. For `Cc1ccc(C)c(OCc2cc(C(=O)NC3CCOC(C)(C)C3)no2)c1` (stereo unspecified), the Potency was inconclusive: 5.01 µM [inhibitor, single point]. In the case of `Cc1c(C(=O)N2CCCC2)c(S(=O)(=O)N2CCN(c3ccccc3F)CC2)c(C)n1C`, the “activity, negative = inhibition” value is reported as inactive: 14%. In the case of `CCOc1ccc(C(=O)c2cn(CC(=O)Nc3ccc(F)cc3)c3cc4c(cc3c2=O)OCCO4)cc1`, the Potency is reported as inconclusive: 4.47 µM [inhibitor, partial curve]. In the case of `O=C(Nc1ccc2c(c1)OCCO2)C(C1CC1)N1CCN(c2ccc(C(F)(F)F)cn2)CC1` (stereo unspecified), the Potency is reported as inconclusive: 28.2 µM [inhibitor, single point]. For `CC(=O)NC12CC3CC(C1)CC(C(=O)Nc1nc4c(C)cccc4s1)(C3)C2`, the Potency was inconclusive: 12.6 µM [inhibitor, single point]. In the case of `Cc1c(/C=C/c2ccnc3ccccc23)ccc(N(C)C)c1C`, the Potency is reported as inconclusive: 11.2 µM [inhibitor, partial curve, poor fit]. In the case of `O=C(Nc1ccc(Cl)cc1F)c1cc(S(=O)(=O)N2CCCCC2)ccc1F`, the Potency is reported as inconclusive: 20 µM [inhibitor, single point]. In the case of `C/C(CC(=O)NCc1ccc(Cl)cc1)=N\NC(=O)COc1ccc(C)cc1Br`, the Potency is reported as inconclusive: 11.2 µM [inhibitor, single point]. With `CC(=O)Nc1cc(-c2ccc(F)cc2)cn2c(-c3ccc(S(C)(=O)=O)cc3)cnc12` the “activity, negative = inhibition” value was inactive: 4.28%. For `Cc1nn(Cc2ccccc2)c(C)c1C(=O)OCC(=O)c1cc(C)n(CC(F)(F)F)c1C`, the “activity, negative = inhibition” value was inactive: -11.6%. For `Cc1ccc(S(=O)(=O)N(CC(O)CN2CCOCC2)c2cc(Cl)ccc2Cl)cc1` (stereo unspecified), the “activity, negative = inhibition” value was inactive: 2.95%. For `CCn1c(COc2ccccc2OC)nc2ccccc21`, the Potency was inconclusive: 10 µM [inhibitor, partial curve, poor fit]. With `c1csc(-c2nnc(NC3CCCCC3)c3ccccc23)c1` the Potency was inconclusive: 28.2 µM [inhibitor, single point]. In the case of `Cc1ccc(-c2nn(C(C)(C)C)c3ncnc(N)c23)cc1`, the Potency is reported as inconclusive: 0.794 µM [inhibitor, full curve, poor fit]. For `Cc1cc(-c2ccccc2)nc(N/N=C/c2ccccc2)n1`, the Potency was inconclusive: 15.8 µM [inhibitor, single point]. With `COc1cc([N+](=O)[O-])cc(/C=N/NC(=O)c2cncc(Br)c2)c1O` the Potency was inconclusive: 35.5 µM [inhibitor, single point]. In the case of `COc1ccc(C(=O)N/N=C/c2cc(Br)ccc2O)cc1OC`, the “activity, negative = inhibition” value is reported as inactive: -7.81%. For `Cc1ccc(CN(C)C(=O)CN2C(=O)NC(c3ccccc3)(c3ccccc3)C2=O)c(C)c1`, the Potency was inconclusive: 35.5 µM [inhibitor, single point]. In the case of `NC(=O)c1cc(-c2csc(-c3cccnc3)n2)ccc1O`, the “activity, negative = inhibition” value is reported as inactive: -2.27%. For `COc1ccccc1N1CCN(C(=O)c2cc(=O)c3cc(C)cc(C)c3o2)CC1`, the Potency was inconclusive: 0.708 µM [inhibitor, full curve, poor fit]. In the case of `Cc1cc(C)c(C)c(S(=O)(=O)N2CCN(CC(=O)c3c(N)n(Cc4ccccc4)c(=O)n(C)c3=O)CC2)c1C`, the Potency is reported as inconclusive: 17.8 µM [inhibitor, partial curve, poor fit]. In the case of `Cc1cccc(NC(=S)NNc2ncc(C(F)(F)F)cc2Cl)c1`, the Potency is reported as inconclusive: 35.5 µM [inhibitor, single point]. For `O=[N+]([O-])c1ccccc1NCc1ccc(Cl)cc1`, the Potency was inconclusive: 12.6 µM [inhibitor, partial curve]. With `Cn1c(=O)c2c(-c3ccc(Br)cc3)n(CCc3ccccc3)cc2n(C)c1=O` the Potency was active: 10 µM. With `Cc1cc(Br)ccc1NC(=O)CNC(=O)CSc1nccn1C` the Potency was inconclusive: 35.5 µM [inhibitor, single point]. In the case of `COc1ccc(C(=O)COC(=O)[C@H](C)Nc2ccc(C(F)(F)F)cc2[N+](=O)[O-])c(OC)c1`, the “activity, negative = inhibition” value is reported as inactive: 15.8%. For `CCOC(=O)c1ccc(S(=O)(=O)N2CCN(C(=O)CSc3nc4ccccc4o3)CC2)cc1`, the Potency was inconclusive: 35.5 µM [inhibitor, single point]. For `CCc1ccc([C@@H]2CC=C(C(=O)O)[C@H](c3ccc(C(C)(C)C)cc3)N2S(=O)(=O)c2ccc(C)cc2)cc1`, the Potency was inconclusive: 17.8 µM [inhibitor, partial curve, poor fit]. For `COCCCn1cc(C(=O)c2cc(OC)ccc2OCC(=O)N2CCCCC2C)cc(C#N)c1=O` (stereo unspecified), the Potency was inconclusive: 1.12 µM [inhibitor, full curve].
